Data: publication PMC4336329 (PLoS ONE, 2015)
Hit rate of the full screen: of about 310,000 compounds, about 14,000 (4.5%) showed an effect of 50% or more. The effect is printed as a negative number. This is one part of the list.

Biological target: human ether-à-go-go-related gene (hERG) potassium channel (human, UniProt Q12809)
Test: primary screen, population patch clamp on CHO cells stably expressing hERG
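Note: peak tail current of the secondary pulse compared with the same well before compound.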

human ether-à-go-go-related gene (hERG) potassium channel, sequence (Q12809 whole entry, looked up): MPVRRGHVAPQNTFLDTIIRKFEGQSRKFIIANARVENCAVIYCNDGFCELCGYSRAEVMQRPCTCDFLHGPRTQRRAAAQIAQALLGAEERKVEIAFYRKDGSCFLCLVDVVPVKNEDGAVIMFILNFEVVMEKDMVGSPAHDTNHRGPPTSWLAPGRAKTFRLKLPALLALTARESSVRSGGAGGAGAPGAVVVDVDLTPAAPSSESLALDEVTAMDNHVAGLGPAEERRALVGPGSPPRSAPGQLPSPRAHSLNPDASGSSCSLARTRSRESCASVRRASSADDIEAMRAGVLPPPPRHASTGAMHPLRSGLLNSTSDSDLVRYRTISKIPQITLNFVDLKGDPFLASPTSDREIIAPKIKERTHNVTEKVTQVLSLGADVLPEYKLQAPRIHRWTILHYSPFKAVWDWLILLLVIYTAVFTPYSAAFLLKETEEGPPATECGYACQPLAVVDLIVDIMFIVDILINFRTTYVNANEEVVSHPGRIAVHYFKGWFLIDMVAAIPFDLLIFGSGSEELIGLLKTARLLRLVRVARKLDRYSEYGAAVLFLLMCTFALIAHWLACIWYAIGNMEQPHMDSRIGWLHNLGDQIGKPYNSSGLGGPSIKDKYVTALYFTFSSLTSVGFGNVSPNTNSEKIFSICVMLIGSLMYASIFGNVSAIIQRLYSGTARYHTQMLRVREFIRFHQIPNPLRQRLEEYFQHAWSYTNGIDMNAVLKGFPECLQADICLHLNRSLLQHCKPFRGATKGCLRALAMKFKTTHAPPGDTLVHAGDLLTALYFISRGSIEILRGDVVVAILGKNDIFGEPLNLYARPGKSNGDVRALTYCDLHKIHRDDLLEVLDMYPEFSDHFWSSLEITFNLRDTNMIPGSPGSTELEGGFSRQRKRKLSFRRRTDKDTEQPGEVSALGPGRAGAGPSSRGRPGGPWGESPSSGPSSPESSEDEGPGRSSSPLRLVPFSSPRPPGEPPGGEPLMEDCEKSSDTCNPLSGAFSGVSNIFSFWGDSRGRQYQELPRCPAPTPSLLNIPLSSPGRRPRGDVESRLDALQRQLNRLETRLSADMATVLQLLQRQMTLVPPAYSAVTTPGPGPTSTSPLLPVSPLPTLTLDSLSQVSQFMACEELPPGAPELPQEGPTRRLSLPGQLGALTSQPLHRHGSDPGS

SMILES | hERG current change (%, negative = inhibition) at 10uM [%]
O=[N+]([O-])c1ccccc1CN1CCN(Cc2ccccn2)CC1 | 2.42
CC(CCc1ccccc1)NC(=O)CSc1nccc(=O)[nH]1 (stereo not shown) | 4.96
Cc1cc(C)n2nc(SCC(=O)c3c(N)n(CC(C)C)c(=O)n(C)c3=O)nc2n1 | -18.6
Cc1ccc(CC(=O)NCc2ccc3c(c2)OCO3)cc1 | 2.24
c1cn2c(Nc3ccc4c(c3)OCCO4)c(-c3ccc(N4CCOCC4)cc3)nc2cn1 | -26.1
CCOc1ccc(-n2c(C)nc(O)c2N=Nc2ccccc2)cc1 | 13.6
CCOCCCNC(=O)CN1C(=O)CSc2cc(S(=O)(=O)N3CCCCCC3)ccc21 | -13.1
Cc1ccc(C)c(N2C(=O)c3ccc(C(=O)OCC(=O)c4c(N)n(C)c(=O)n(C)c4=O)cc3C2=O)c1 | -19.9
Cn1nc(C(=O)OCC(=O)Nc2ccc(S(N)(=O)=O)cc2)c2ccccc2c1=O | 15.3
CCC1=NN=C(c2ccc(F)cc2)C(c2c[nH]c3ccccc23)N1O (stereo not shown) | 0.967
CN1CCC(=O)N(CCOc2ccccc2)CC1 | 19.4
COC(=O)CC(NC(=O)Nc1ccc(C)cc1)c1cccc([N+](=O)[O-])c1 (stereo not shown) | -9.1
O=C(CCOc1ccccc1)Nc1ccc(Br)cc1 | 13.6
Cc1ccc(OCC(=O)N2CCCCCCC2)cc1C | -4.47
S=c1[nH]nc(COc2ccccc2)n1/N=C/c1c(Cl)cccc1Cl | 24.1
COc1ccccc1CC(NC(C)=O)C(=O)NC1CCN(C(=O)Nc2ccc(F)cc2)CC1 (stereo not shown) | -1.82
O=C(C[n+]1cccc(O)c1)NCc1ccc(Cl)cc1.[Cl-] | 24.2
O=Cc1ccccc1-n1cccn1 | 12.5
O=C(OCC1O[C@@H](OC(=O)c2cc(O)c(O)c(O)c2)[C@@H](OC(=O)c2cc(O)c(O)c(O)c2)[C@@H](OC(=O)c2cc(O)c(O)c(O)c2)[C@@H]1OC(=O)c1cc(O)c(O)c(O)c1)c1cc(O)c(O)c(O)c1 (stereo partly shown) | 33.9
COc1cccc(NC(=O)CSc2nnc(Cn3nnc4ccccc43)n2C)c1 | -11.7
O=C(Nc1ccc(Cl)cc1C(=O)N1CCOCC1)c1cccc([N+](=O)[O-])c1 | -12.1
CCOC(=O)CSc1nc2c(sc(=S)n2CCc2ccccc2)c(=O)n1Cc1ccco1 | 2.54

SMILES | hERG current change (%, negative = inhibition) at 10uM [%]
CCOC(=O)c1c(C)[nH]c(C)c1C(=O)CSc1nnc(-c2ccncc2)n1Cc1ccccc1 | -46.6
CCCCn1c(SCC(=O)Nc2cc(C)[nH]n2)nc2ccsc2c1=O | 7.3
FC(F)(F)c1cccc(N2CCC(N=CN3CCCCCC3)=N2)c1 | -21.2
Cc1ccc(C)c(N2CCN(S(=O)(=O)c3ccc4c(c3)C(C)(C)C(=O)N4C)CC2)c1 | 3.88
COc1ccc(NC(=O)N(Cc2cc3cc(OC)ccc3[nH]c2=O)CC2CCCO2)cc1 (stereo not shown) | -31.6
CCN1C(=O)c2cccc3c(NC(=O)c4ccc(S(=O)(=O)N5CCOCC5)cc4)ccc1c23 | -2.38
S=c1[nH]nc(-c2ccccc2)n1/N=C/c1ccc(-c2ccccc2Cl)o1 | 25.4
Cc1ccc(CSCCNC(=O)CSCc2ccc([N+](=O)[O-])cc2)cc1 | -71.4
CC(OC(=O)c1cc(=O)[nH]c2ccccc12)C(=O)NC1CCCCC1C (stereo not shown) | 5.83
O=C(NNS(=O)(=O)c1ccc(F)cc1)c1cc2ccccc2cc1O | 12.6
Cc1ccc(-c2ccc(C(=O)O)o2)cc1Cl | 15.7
O=C(NCC1CCCN(C(=O)c2cscn2)C1)c1ccccc1Cl (stereo not shown) | 13.3
COc1ccc(NC(=S)N(CCC(C)C)C2CCN(C(C)=O)CC2)cc1 | 18.9
Cc1cc([N+](=O)[O-])ccc1NC(=O)C1CCCO1 (stereo not shown) | -15.7
COC(=O)c1nc(NC(=O)c2cc(OC)c(OC)c(OC)c2)n[nH]1 | 1.78
COc1ccc(OCCCC(=O)Nc2cc(S(=O)(=O)N3CCCCC3)ccc2OC)cc1 | -0.647
COc1ccc(NC(=O)CN(C)C2CCS(=O)(=O)C2)cc1 (stereo not shown) | 16.5
CN(C)C1=NCCN1CCc1ccc(F)cc1 | -9.03
O=C(c1ccc(F)cc1)N1CCCCC(Sc2nnnn2-c2ccccc2)C1=O (stereo not shown) | -29.3
CCOc1ccc(CNc2nnnn2C)cc1OC | 8.61
CC1(C)N=C(c2cccs2)C(C)(C)N1O | 19.3
O=C(CCNC(=O)c1ccc(Cl)cc1)Nc1ccc(F)cc1F | 13.1

SMILES | hERG current change (%, negative = inhibition) at 10uM [%]
CC(=O)O.O=C(NCC1CCCCN1)c1cc(OCC(F)(F)F)ccc1OCC(F)(F)F (stereo not shown) | -49.4
CC(C)(C)c1ccc(NC(=O)c2ccccc2)c([N+](=O)[O-])c1 | 0.655
COc1ccc(OC)c(CNC(=O)c2cc(=O)[nH]c3ccc(S(=O)(=O)N4CCCC4)cc23)c1 | 14.3
CCOC(=O)C(CN1CCCC1)c1ccccc1 (stereo not shown) | -5.11
CCOC(=O)C1Nc2ccccc2C2c3ccccc3CC12 (stereo not shown) | -10.1
CCC(C)c1ccccc1N1CC(C(=O)NCCC2=CCCCC2)CC1=O (stereo not shown) | 8.97
CCC(C)[C@H](NC(=O)N1CCn2c1nc1ccccc12)C(=O)NCC1CCCO1 (stereo partly shown) | -1.61
COc1ccc(CN2CCN(C(=O)C3CC(=O)N(C4CCCCCC4)C3)CC2)c(OC)c1OC (stereo not shown) | 0.00918
OCC1CCCN(C(=S)Nc2ccc(Oc3ccccc3)cc2)C1 (stereo not shown) | -24.6
COC(=O)c1ccccc1NC(=S)NC(=O)c1ccc(C)cc1 | -1.62
Cc1ccc(NC(=O)CN(C)S(=O)(=O)c2ccc3c(c2)c(=O)n(C)c(=O)n3C)cc1 | 13
COC(=O)C(C)NC(=O)C1CCCN1S(=O)(=O)c1cc(C)c(Cl)cc1C (stereo not shown) | 2.58
CC(=O)c1cccc(NC(=O)CCNC(=O)c2cccc(C)c2)c1 | 0.379
O=C(CCCCC(=O)NNC(=O)COc1ccccc1)NNC(=O)COc1ccccc1 | -0.682
CN(C)CCCN(C(=O)c1ccc(S(=O)(=O)N2CCCC2)cc1)c1nc2ccc(Br)cc2s1.Cl | -47.9
O=C(CCN1C(=O)/C(=C/C=C/c2ccccc2)SC1=S)Nc1nc2ccccc2s1 | 18.3
Cc1ccn2c(=O)nc(SCC(=O)N3CCCCC3)nc2c1 | -8.19
CCOC(=O)COc1cc(N2C(=O)CSCC2=O)c(Cl)cc1Cl | 3.73
O=C(C1CCCN(c2ncnc3c2nc2n3CCCCC2)C1)N1CCN(c2ccc(Cl)cc2)CC1 (stereo not shown) | -54.8
COC(CNC(=O)c1ccc(CS(=O)(=O)c2ccc(C)cc2)o1)OC | -10
COc1ccc([C@@H]2CC=C(C(=O)O)[C@H](c3ccc(F)cc3)N2S(=O)(=O)c2ccc(Cl)cc2)cc1 | 27.2
O=C(NCCc1ccc2c(c1)OCCO2)c1cccc(F)c1 | 5.29

SMILES | hERG current change (%, negative = inhibition) at 10uM [%]
COCCNC(=O)c1ccc2c3n(nc2c1)-c1ccc(Cl)cc1CO3 | -22
COCC(=O)N(Cc1cc2ccc(C)cc2[nH]c1=O)c1ccc(OC)cc1 | -6.22
Cc1cccc(Nc2c(F)c(F)c(F)c(F)c2C(=O)O)c1 | 26.8
Cc1occc1C(=O)NNC(=O)c1ccccc1[N+](=O)[O-] | 16.6
O=C(Nc1cc(C(F)(F)F)ccc1N1CCOCC1)C1Cc2ccccc2CN1C(=O)c1ccco1 (stereo not shown) | 1.05
O=S(=O)(c1ccccc1)c1nc(-c2ccccc2)oc1NCCCN1CCOCC1 | -43.9
O=C(Cn1c(=O)n(Cc2ccco2)c(=O)c2ccccc21)NCC1CCCO1 (stereo not shown) | 2.5
O=C1CN(C(=O)COC(=O)CNS(=O)(=O)/C=C/c2ccccc2)c2ccccc2N1 | 11.2
CC(C)OCCCNC(=O)CN1CCN(Cc2ccccc2Cl)C1=O | -1.69
CN(Cc1ccccc1)C(=O)COc1ccccc1 | 19.3
CC(=O)c1ccc(N2CCN(C(=O)c3noc4c3CSc3ccccc3-4)CC2)cc1 | 17.2
O=C(NCc1ccc(F)cc1)c1ccc(CS(=O)(=O)Cc2ccccc2F)o1 | -23.4
Cc1ccc(NC(=O)CCC(=O)N2CCOCC2)nc1 | 13
CC1(C(=O)N/N=C/c2c(F)c(F)c(F)c(F)c2F)CC1(Cl)Cl (stereo not shown) | 6.83
Cc1ccc(S(=O)(=O)N2CCOCC2)cc1C(=O)N1c2ccccc2Sc2ccccc21 | -4.39
Cc1ccc(C)c(N(C(=O)Cc2cccs2)C(C(=O)NC2CCCC2)c2ccc(C)o2)c1 (stereo not shown) | 8.63
CCNc1c2c(nc3ccccc13)CC(C)(C)CC2=O.O=C(O)C(=O)O | -69.9
O=C(O)C1CSC(c2ccc3c(c2)OCO3)N1 (stereo not shown) | 20.3
Cc1ccc(S(=O)(=O)N2CCC(C(=O)OCC(=O)N(C)C3CCS(=O)(=O)C3)CC2)cc1C (stereo not shown) | -21.4
